Experimental data as given in the supplement of paper PMC4604168 (melanoma cell lines).
Some of the results follow. Single values are uncertain, as repeats are few or missing.
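Note: cells treated in 1,536-well plates, then fixed and DAPI-stained, with nuclei counted from automated high-throughput microscope images.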

What follows are compounds tested on WM1745 (assay: cell count relative to DMSO control; melanoma cells; higher = more viable cells). Conditions: library dose: standard library concentration; 72 h; first compound 2 µM.
With `CCCCCCCCCCCCCCCCCCOP(=O)([O-])OC1CC[N+](C)(C)CC1` [Perifosine] + NC1(c2ccc(-c3nc4ccn5c(=O)[nH]nc5c4cc3-c3ccccc3)cc2)CCC1 [MK2206] (partner dose 2 µM) the cell count was 74.7%.
For `CCCCCCCCCCCCCCCCCCOP(=O)([O-])OC1CC[N+](C)(C)CC1` [Perifosine] + O=c1[nH]nc(Sc2ncc([N+](=O)[O-])s2)n1-c1ccc2c(c1)OCCO2 [BI78D3] (partner dose 1 µM), the cell count was 87.2%.
For `C[C@@H](N)c1ccc(C(=O)Nc2ccnc3[nH]ccc23)cc1` + NC1(c2ccc(-c3nc4ccn5c(=O)[nH]nc5c4cc3-c3ccccc3)cc2)CCC1 [MK2206] (partner dose 2 µM), the cell count was 52.5%.
For `CCCCCCCCCCCCCCCCCCOP(=O)([O-])OC1CC[N+](C)(C)CC1` [Perifosine] + Cc1cn(-c2cc(NC(=O)c3ccc(C)c(Nc4nccc(-c5cccnc5)n4)c3)cc(C(F)(F)F)c2)cn1 [nilotinib] (partner dose 1 µM), the cell count was 81.6%.
Compound `Cn1sc(=O)n(Cc2ccccc2)c1=O` + CN(c1ncccc1CNc1nc(Nc2ccc3c(c2)CC(=O)N3)ncc1C(F)(F)F)S(C)(=O)=O [PF562271] (partner dose 0.4 µM) has a cell count of 78.7%.
In the case of `C[C@@H](N)c1ccc(C(=O)Nc2ccnc3[nH]ccc23)cc1` + C=C(c1ccc(C(=O)O)cc1)c1cc2c(cc1C)C(C)(C)CCC2(C)C [Bexarotene] (partner dose 10 µM), the cell count is reported as 56.5%.
With `CCCCCCCCCCCCCCCCCCOP(=O)([O-])OC1CC[N+](C)(C)CC1` [Perifosine] + Cc1cc(Nc2cc(N3CCN(C)CC3)nc(/C=C/c3ccccc3)n2)n[nH]1 [ENMD2076] (partner dose 0.2 µM) the cell count was 66.2%.
With `C[C@@H](N)c1ccc(C(=O)Nc2ccnc3[nH]ccc23)cc1` + CN(NC(=O)CC(=O)NN(C)C(=S)c1ccccc1)C(=S)c1ccccc1 [STA4783] (partner dose 0.03 µM) the cell count was 23.1%.
Compound `Cn1sc(=O)n(Cc2ccccc2)c1=O` + COc1cc(Nc2ncc(F)c(Nc3ccc4c(n3)NC(=O)C(C)(C)O4)n2)cc(OC)c1OC [Tamatinib] (partner dose 2 µM) has a cell count of 33.8%.
`CCCCCCCCCCCCCCCCCCOP(=O)([O-])OC1CC[N+](C)(C)CC1` [Perifosine] + OCc1c[nH]c2ccccc12 [Indole-3-carbinol] (partner dose 4 µM) gave a cell count of 95%.
`C[C@@H](N)c1ccc(C(=O)Nc2ccnc3[nH]ccc23)cc1` + CS(=O)(=O)CCNCc1ccc(-c2ccc3ncnc(Nc4ccc(OCc5cccc(F)c5)c(Cl)c4)c3c2)o1 [lapatinib] (partner dose 4 µM) showed a cell count of 41.9%.
For `Cn1sc(=O)n(Cc2ccccc2)c1=O` + O=C(O)c1ccc(-c2c[nH]c3ncc(-c4ccccc4)cc23)cc1C1CCCC1 [GSK650394] (partner dose 0.8 µM), the cell count was 83.7%.
With `Cn1sc(=O)n(Cc2ccccc2)c1=O` + Cn1nnc2c(C(N)=O)ncn2c1=O [temozolomide] (partner dose 10 µM) the cell count was 80.9%.
